Binding signal data for 31 molecules are collected here from PMC9911399, “Two distinct binding modes provide the RNA-binding protein RbFox with extraordinary sequence specificity”.

T1: RBFOX1 RRM (Homo sapiens, UniProt Q9NWB1 109-208)
T1 sequence: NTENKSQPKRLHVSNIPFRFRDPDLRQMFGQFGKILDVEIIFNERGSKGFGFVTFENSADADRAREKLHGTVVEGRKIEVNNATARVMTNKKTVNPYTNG

B1: GGCGAUU (DNA:RNA)
RNA: GGGAGACCGGAAUUCAGAUUGUCCGGCGAUUUUAAAUCCCGUCGUAGCCACCA
DNA 1: CAATCTGAATTCCGGTCTCCC
DNA 2: TGGTGGCTACGACGGGATT
B2: CCAGCGU (DNA:RNA)
RNA: B1 RNA with G25C, G26C, C27A, A29C, U30G
DNA 1: CAATCTGAATTCCGGTCTCCC
DNA 2: TGGTGGCTACGACGGGATT
B3: AGUCCAA (DNA:RNA)
RNA: B1 RNA with G25A, C27U, G28C, A29C, U30A, U31A
DNA 1: CAATCTGAATTCCGGTCTCCC
DNA 2: TGGTGGCTACGACGGGATT
B4: UGUGCAG (DNA:RNA)
RNA: B1 RNA with G25U, C27U, A29C, U30A, U31G
DNA 1: CAATCTGAATTCCGGTCTCCC
DNA 2: TGGTGGCTACGACGGGATT
B5: GUCCUCC (DNA:RNA)
RNA: B1 RNA with G26U, G28C, A29U, U30C, U31C
DNA 1: CAATCTGAATTCCGGTCTCCC
DNA 2: TGGTGGCTACGACGGGATT
B6: CCGAAUG (DNA:RNA)
RNA: B1 RNA with G25C, G26C, C27G, G28A, U31G
DNA 1: CAATCTGAATTCCGGTCTCCC
DNA 2: TGGTGGCTACGACGGGATT
B7: UGCCCAG (DNA:RNA)
RNA: B1 RNA with G25U, G28C, A29C, U30A, U31G
DNA 1: CAATCTGAATTCCGGTCTCCC
DNA 2: TGGTGGCTACGACGGGATT
B8: CAGCGAA (DNA:RNA)
RNA: GGGAGACCGGAAUUCAGAUUGUCCCAGCGAAUUAAAUCCCGUCGUAGCCACCA
DNA 1: CAATCTGAATTCCGGTCTCCC
DNA 2: TGGTGGCTACGACGGGATT
B9: UUUUACG (DNA:RNA)
RNA: B1 RNA with G25U, G26U, C27U, G28U, U30C, U31G
DNA 1: CAATCTGAATTCCGGTCTCCC
DNA 2: TGGTGGCTACGACGGGATT
B10: ACGGGGC (DNA:RNA)
RNA: B8 RNA with C25A, A26C, C28G, A30G, A31C
DNA 1: CAATCTGAATTCCGGTCTCCC
DNA 2: TGGTGGCTACGACGGGATT
B11: CUGUAAA (DNA:RNA)
RNA: B8 RNA with A26U, C28U, G29A
DNA 1: CAATCTGAATTCCGGTCTCCC
DNA 2: TGGTGGCTACGACGGGATT
B12: CUGCGAA (DNA:RNA)
RNA: B8 RNA with A26U
DNA 1: CAATCTGAATTCCGGTCTCCC
DNA 2: TGGTGGCTACGACGGGATT
B13: CACGCUC (DNA:RNA)
RNA: B1 RNA with G25C, G26A, A29C, U31C
DNA 1: CAATCTGAATTCCGGTCTCCC
DNA 2: TGGTGGCTACGACGGGATT
B14: ACUCUUC (DNA:RNA)
RNA: B8 RNA with C25A, A26C, G27U, G29U, A30U, A31C
DNA 1: CAATCTGAATTCCGGTCTCCC
DNA 2: TGGTGGCTACGACGGGATT
B15: UUGAAGC (DNA:RNA)
RNA: B8 RNA with C25U, A26U, C28A, G29A, A30G, A31C
DNA 1: CAATCTGAATTCCGGTCTCCC
DNA 2: TGGTGGCTACGACGGGATT
B16: CGAGGAG (DNA:RNA)
RNA: B8 RNA with A26G, G27A, C28G, A31G
DNA 1: CAATCTGAATTCCGGTCTCCC
DNA 2: TGGTGGCTACGACGGGATT
B17: AAUUGCU (DNA:RNA)
RNA: B8 RNA with C25A, G27U, C28U, A30C, A31U
DNA 1: CAATCTGAATTCCGGTCTCCC
DNA 2: TGGTGGCTACGACGGGATT
B18: AUCCUCU (DNA:RNA)
RNA: B1 RNA with G25A, G26U, G28C, A29U, U30C
DNA 1: CAATCTGAATTCCGGTCTCCC
DNA 2: TGGTGGCTACGACGGGATT
B19: ACUCUUG (DNA:RNA)
RNA: B8 RNA with C25A, A26C, G27U, G29U, A30U, A31G
DNA 1: CAATCTGAATTCCGGTCTCCC
DNA 2: TGGTGGCTACGACGGGATT
B20: ACGCUGA (DNA:RNA)
RNA: B8 RNA with C25A, A26C, G29U, A30G
DNA 1: CAATCTGAATTCCGGTCTCCC
DNA 2: TGGTGGCTACGACGGGATT
B21: CGUUCUA (DNA:RNA)
RNA: B8 RNA with A26G, G27U, C28U, G29C, A30U
DNA 1: CAATCTGAATTCCGGTCTCCC
DNA 2: TGGTGGCTACGACGGGATT
B22: GAGACUC (DNA:RNA)
RNA: B8 RNA with C25G, C28A, G29C, A30U, A31C
DNA 1: CAATCTGAATTCCGGTCTCCC
DNA 2: TGGTGGCTACGACGGGATT
B23: AUUUGUU (DNA:RNA)
RNA: B1 RNA with G25A, G26U, C27U, G28U, A29G
DNA 1: CAATCTGAATTCCGGTCTCCC
DNA 2: TGGTGGCTACGACGGGATT
B24: UUUACCA (DNA:RNA)
RNA: B8 RNA with C25U, A26U, G27U, C28A, G29C, A30C
DNA 1: CAATCTGAATTCCGGTCTCCC
DNA 2: TGGTGGCTACGACGGGATT
B25: UUACCAC (DNA:RNA)
RNA: B8 RNA with C25U, A26U, G27A, G29C, A31C
DNA 1: CAATCTGAATTCCGGTCTCCC
DNA 2: TGGTGGCTACGACGGGATT
B26: AGCUUAC (DNA:RNA)
RNA: B1 RNA with G25A, G28U, A29U, U30A, U31C
DNA 1: CAATCTGAATTCCGGTCTCCC
DNA 2: TGGTGGCTACGACGGGATT
B27: AGAAUAA (DNA:RNA)
RNA: B8 RNA with C25A, A26G, G27A, C28A, G29U
DNA 1: CAATCTGAATTCCGGTCTCCC
DNA 2: TGGTGGCTACGACGGGATT
B28: GCCGAAU (DNA:RNA)
RNA: B1 RNA with G26C, U30A
DNA 1: CAATCTGAATTCCGGTCTCCC
DNA 2: TGGTGGCTACGACGGGATT
B29: CAGAUCA (DNA:RNA)
RNA: B8 RNA with C28A, G29U, A30C
DNA 1: CAATCTGAATTCCGGTCTCCC
DNA 2: TGGTGGCTACGACGGGATT
B30: GAGCCAG (DNA:RNA)
RNA: B8 RNA with C25G, G29C, A31G
DNA 1: CAATCTGAATTCCGGTCTCCC
DNA 2: TGGTGGCTACGACGGGATT
B31: UGAACAG (DNA:RNA)
RNA: B8 RNA with C25U, A26G, G27A, C28A, G29C, A31G
DNA 1: CAATCTGAATTCCGGTCTCCC
DNA 2: TGGTGGCTACGACGGGATT

Residue numbers refer to the chain shown, from its start. This is one part of the list.

The target in the experiment is T1, RBFOX1 RRM. The experiment can be described thus: EMSA; HiTS-Eq, 1 nM pool, 10 min; buffer printed only for the single-RNA assays: 10 mM Tris pH 7.5, 150 mM NaCl, 3.4 mM EDTA, 0.001% NP-40, 30 C. As to conditions: tags: His6 N-terminal (pET28a); label: 5' 32P. An outline of the steps: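 Relative association constants, normalised to the cognate motif, were derived by comparing read counts of each RNA species with those of the control reaction. The RNA sequenced was the free fraction, separated by 8% native PAGE after a 10 min equilibration in 50 µL of 1 nM 5′-radiolabelled RNA (7 randomized nucleotides) with increasing concentrations of purified wild-type or mutant RbFox RRM.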
In the case of B1, the binding signal was 0.0121 KA relative to UGCAUGU.
Next, B2: 0.00657 KA relative to UGCAUGU; B3: 0.00171 KA relative to UGCAUGU; B4: 0.0216 KA relative to UGCAUGU.
B5: the binding signal was 0.00969 KA relative to UGCAUGU.
Next, B6: 0.0174 KA relative to UGCAUGU; B7: 0.0164 KA relative to UGCAUGU; B8: 0.00745 KA relative to UGCAUGU.
As to B9, the binding signal is 0.0168 KA relative to UGCAUGU.
Next, B10: 0.0165 KA relative to UGCAUGU; B11: 0.00865 KA relative to UGCAUGU; B12: 0.0155 KA relative to UGCAUGU.
With B13, the binding signal is 0.00564 KA relative to UGCAUGU.
Consider B14, for which the binding signal is 0.00543 KA relative to UGCAUGU.
Next, B15: 0.0163 KA relative to UGCAUGU; B16: 0.0107 KA relative to UGCAUGU.
Next, B17: 0.00776 KA relative to UGCAUGU; B18: 0.00303 KA relative to UGCAUGU; B19: 0.0078 KA relative to UGCAUGU.
For B20, the binding signal was 0.0109 KA relative to UGCAUGU.
The value for B21 was 0.00814 KA relative to UGCAUGU.
Turning to B22, the binding signal was 0.015 KA relative to UGCAUGU.
Next, B23: 0.0145 KA relative to UGCAUGU; B24: 0.00361 KA relative to UGCAUGU; B25: 0.0022 KA relative to UGCAUGU.
The value for B26 was 0.00674 KA relative to UGCAUGU; that for B27 was 0.000945 KA relative to UGCAUGU.
The value for B28 was 0.0115 KA relative to UGCAUGU.
As for B29, the binding signal was 0.00299 KA relative to UGCAUGU.
Next, B30: 0.0103 KA relative to UGCAUGU; B31: 0.0126 KA relative to UGCAUGU.
